# Assay results from the supplement of paper PMC10681739.
# ± gives the standard deviation of the averaged measurements. Over roughly 4,100 sequences, “arbitrary fluorescence units” has its median near 780; the highest 2% begin near 22,000. This is one part of the list.
# Biological target: T1, ETS1 (UniProt P14921)
# T1 sequence: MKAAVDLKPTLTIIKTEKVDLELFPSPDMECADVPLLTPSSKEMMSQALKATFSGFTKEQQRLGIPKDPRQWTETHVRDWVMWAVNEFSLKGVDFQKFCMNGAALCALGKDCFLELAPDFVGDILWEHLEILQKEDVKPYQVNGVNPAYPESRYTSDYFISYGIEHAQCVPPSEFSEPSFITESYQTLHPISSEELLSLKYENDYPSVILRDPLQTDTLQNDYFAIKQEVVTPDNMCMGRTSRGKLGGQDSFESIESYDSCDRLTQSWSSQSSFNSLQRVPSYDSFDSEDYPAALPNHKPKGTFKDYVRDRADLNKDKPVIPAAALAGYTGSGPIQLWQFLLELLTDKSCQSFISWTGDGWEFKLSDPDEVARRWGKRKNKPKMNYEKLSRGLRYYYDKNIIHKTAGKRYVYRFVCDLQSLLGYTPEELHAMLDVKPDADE
# Experiment: ETS1 binding intensity (PBM fluorescence), ETS1 alone (arbitrary fluorescence units); higher = stronger binding
# Details: ETS1 concentration 1 nM; RUNX1 concentration 0 nM
# Description: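 gcPBM on 36-bp genomic-derived probes (partner site mutated) containing one ETS1 site and no RUNX1 site. Recombinant human ETS1 (1 nM) was incubated alone or with RUNX1 (25 nM) and detected by anti-ETS1 antibody fluorescence. Values are medians over 4 replicate spots (not normalised). The probes sit in constant array flanks that are not printed.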
row,Sequence,ETS1 binding intensity
1,AACTTCCTCATTTCTCCAACTGTCCAGCCAGAGAAA,13300
2,TCCCACATCCTGTGCTCGTGCAGTGCTTAGGCTCAA,18200
3,CTGCGCTTCCGCTTCACCCGGAGTACAGGGGTCCTG,11400
4,CCTGTCCGGAAGTCCTGAGAGGGAATCGCCCGTAAA,6580
5,CAAGGGAATAGCCGCTGACGGAAGCAGACAGCCTGT,509
6,GCGCAGCCCGTTTCCCCTCTTGGCGGCTGCGAACTT,1080
7,AAGTGCTTGCATATAGGGCGAATCGGCTTCCTGCTA,463
8,GCCTCCTCCCATTTCCTCCATGTGCTCAATCCAGTT,2520
9,GACGGAAGCCGAGAGGCTCCCGTAAGCGCTCTTGAG,382
10,AGGCTCCGGCGCAGTGCCAGCCGGAACTTGGGGTTC,536
11,CAGCAGTAAGCTACAGAGGAAAACAGGAAGTGATAC,3030
12,TGCCATCTTGAGGTGGCGCCGGGTTTCCGCTCAGGC,872
13,TCTTCGGGACTAAGAGGCGGGGAAAGGAAGCGAAAG,461
14,CGGAGCGCGCTGGGGTGGGTGCGGAAGGGGGCGAGG,590
15,CCACCCTCCGTCCGGCCGCGACAGCGAGGAGGAAGA,1180
16,AGGCGCTGAGGGGATGGTGAGGACGCTATCCGGGGC,336
17,GACCGAGAGGAAGCAGCAAGGATCCTGCTGTTCCAG,931
18,TCCCTGGAGCGGATTTAGGGGGCCGCTTCCTTGGCC,385 ± 49
19,CTCCCGCCTTCCTCCCGGTTTACGGCCATTGACCGT,798
20,GCGAAAGGAACTTCCTTTGCATGCGCTCAGAGTGCT,3940
21,ACTTACAAAGGAAGTGACAGAACGACAGAAAAGACC,2840
22,TTTGTTGGGGTTGGTGAGTCACTTCCTCCCTCTCGC,1160
23,AATCCAACACTTCCTCCTCCACCTCAGAAAGGCAAC,3860
24,TGCCGTTTCCGGGTCACCCAGGCAGCTTTTGGCGGC,13900
25,ACAGGAAATGACTTAGGGAAAGTCCCAACGGCAATC,1770

row,Sequence,ETS1 binding intensity
1,GGGGCTCCGCAGGAAGTAGGGCTCCCAGAACTTTGC,2040
2,GTGTGTGCGTGGGGAGAGCTGCAGCCACAGGAAACG,597
3,ATGGCGGGCGCTGCAGTGGGCAGTTGAGTTTCCGGG,506
4,GGCACACTGCTGTTGCACCATAAGCTTCCTGGATGG,511
5,TCCGGAAGTGGCACTGATGGGCGCCAGCGGCGGGGG,6520
6,GGAAAGCGGAAGAAAAAAGCAAGATGGGACCCCAAG,642
7,CCACCTCCTCCGGACGCCGCCCGAAACTGAGCATGC,591
8,CCGACCCCAGCTTCCCGGGGTTGAGGCCCTGCCTCC,462
9,ATCAGGGGAAACGGCCAAGGTGGCGGGAGTCTCTTC,390
10,ATTGGTTTCTGTCGTTGACGAGGCATCCGGTCTATG,2160
11,GCTACGGGTTCCCCGGATGGAGCCGCTGTCCGGCCG,581
12,TGAGTCATTTCCTGGGTGGGGGCTACAAGACCAGGT,6470
13,CTTATCAACTACCAAGAGACATTTCCCCTTTGTACT,558
14,AGCTCTGCCAGGAAGTGAGAACGACAGGCCTCCCCT,2100
15,CAGCACACACCGTACGGGGCGACAGCTTCCGGGGGC,1280
16,CAGGACGCTGTCGCTGCAGCTTCTTCCGGCTAGCTG,1610
17,TGCAATCTTAGCCGCTGTGCTTCCGTCGCAGTGGGA,702
18,GGATCGGCCTGAGGTGTGTCTCATTTCCTGTAGGTA,2130
19,AGTGTAGTAATCACAGGCCCCGGAAACCTCCCCCTC,392
20,TTTTCTCTAAACTACATGAAAACAGGAAATGAGCCT,2740
21,AGAAACTACAAAACCCCATTTGAAATTCCGCCGTGC,352
22,GCGTTCGTGGGGCGGCAGCTGCGGAACTGCGCGATT,401
23,AGCTGAGGTCGAGGTGCAGCAGCAGGAAACGTGATA,633
24,CAGGACCCCTGTACTCCGGGTGAAGCGGAAGCGCAG,667
25,GGTGGCCCCAAATAGATATGCATACGGACGTTACAC,387

row,Sequence,ETS1 binding intensity
1,GAAACCGGAAGCGGCGGCTGTCCACGGTGCCGGCTG,17600
2,TGTGAGCACAGCTGGGGGCGGGGCAGGAAGTAGAAG,1640
3,GGAGGAACAACCCCTGGTTGTCCACGTTCCGGTCGT,316
4,CGCCGGATGCATAAAAGACTGGCTTCGGTGGCTCAG,1410
5,AGGTACAACACCAGACGGTAGGCCAGGAAATCGCAG,407
6,CAACTCACATCCTCTGGCAACAACGACTAATCCACT,3570
7,CAACTGACCGGACAGAACACAGCTACAAAACACGAG,482 ± 52
8,CCTGGAGCCTGTAGGCTTGGCTGCTTCCGCTAGCAG,960
9,GCCCTCGGCACGCACATTCTATCCGGCTAACCAGCT,463
10,GACTTCAGTGGATAACTCTGGAGAGCAGGAAATGGG,649
11,AAGCACTTGTAGTTGGCACCAGCTTTTCCTGTGCTC,379
12,CTCATGCACCGCCTGCACGTCCCAGGATGCGCTGCA,417
13,TCTGCAGCTTTCTCTCCCCAGCCACATCCGCCATTC,775
14,GAGGGGAGGAAGGCCTGGCTCGGGCTGGGCCCCAGC,417
15,CGAGGTGGAATCCGCAGCAGGAAGTGGGACGACAGA,3040
16,TTATTTCCTCTTTTTTTTTTTTTTTTTGGATTTGCT,7430
17,TCTGAGAATGCAGGATATGTGTGTGCTCTCTAGTCA,635
18,GATCACAAAATCCACTCGTTTCCTGTCCACAGCTAG,5970
19,GTCGCTGCTGTTTTGGGGTTGGCATCCTGTCCTCTG,708
20,GGTGTGACAACTACAAACAGCTTCCTGCCAGAGTCC,2540
21,CAGCAACATGCCCGAAGAGAATTCTTCCGGAGGCGG,641
22,GCTCAACTCACCCTCAGAACATGAGGATGTTATACA,460
23,ACCGCTGAGGCGGATTCCCACCGACTTCCTTTCCAT,554
24,GCCGGCGACATCCTCCCTTTGTAGGCGCTCCCTGCA,2380
25,GAAGTGGTGGCGGGCGCAGGCCAGGAAGGACAAGTG,406

row,Sequence,ETS1 binding intensity
1,ATCAGTCAACTTCCCCCACTCCCTCCCACGAAGAAA,1180
2,GGCGCGCGAGACCCTCAGACAGCGGAACTGGAGCCC,366
3,AACCTCCGACTTCCGGCCGCGCAGCGGAGGGCTGAG,32100
4,TCCTGTCTTCGTGGCTCCGGAAAGGCGTTTGGGATG,413
5,AGGGTGTGGAGGAAGTGGCTTACAAGCACTTTGTCT,1400
6,CAACCCAAGGGGATGTGCTCACTGGGGTGAGGAGGC,412
7,CCATTTCCGCGCACGTCTGCAGATTCGGTAGTCGAT,9320
8,TCCCCCAGCGCACAGGCAAACCATTTCCTCTTCTGC,1060
9,AATGAGCCCCAGAACCCTTTTCCTTCCGGCCTGCAC,1300
10,GTTTACAAATCCAAGCCCTTGACGTCTTCCTGGACC,347
11,CAGGCTGCTGTTGAAATGCATCAGCTCTTTCCTGCC,372
12,CCCCCTGGGGTACAAATGTCCCGGAAGCCGCGAACC,1040
13,TACTTAGAGGAAATGTGGCCTGTTGTCTTGTCTCAC,795
14,ACTGCCGAAACTAGGGGCAGCTCTACTTCCGGTGCC,10100
15,CACCCTGGCCGTGGTGAGTTCCGCCTGCTTGGGGAT,583
16,CTTCAAAGTCAGGAAACCGTTAAACTACACTGCATC,683 ± 79
17,CCAACAGTACCCTTCCTCCCTTAACCCCAAGACTGA,509
18,GGCCTCAGCGGCGCCGCGACAGGAAGCGGCGGGCGA,2020
19,GGTTTCCGGGTGAAAAAAAAAAAAAAATCCACGCCA,15200
20,GCGGGAGTGCAGTCTGTGCCGTTCCGGCCAGGAGTT,283
21,TTTTTTCCGCCTGTAGGGTCACATTGGGGTTGATTG,2790
22,CCCCGTCCGGGGAGGAGCGAGGCCCGAGGTTGTCCC,693
23,CAGTAGGCTGCTGTTGCGCGCGCCGGATGTGGGCCC,1160
24,GCGGGAGGCTTCCTCACATTAGCGCTCCGCGTAAGT,498
25,CGGCCTGCAGCAGAACAGCCAGCGCACTTCCTCCTC,512

row,Sequence,ETS1 binding intensity
1,GCACAGCGCTCTATTTCACCTCAGGAAGCTTCCCCC,329
2,TCCCCCACTTCCTGGCAGCAGCAGTGTGCTGAGGAG,11000
3,CCATTGGCGGGCGGCTTGAATGACGGAAGTGACGGC,872
4,AGGCCCGGATACCCGCCCCCAAATCCGCGTCCACAA,584
5,CTGCCAACCTGTGAGCGCCTGGCTTCCTGCCTGGGC,1020
6,TGAAGGAAGGGGGCTGTTTGCAGATAATCACAGCCT,432
7,CTCCGCTCACAGCAACACAGGCGCTTCCTTGTGCAG,521
8,GTTGCAAAGGCGCCTACAACTACTTCCGCTTCTAGT,4670
9,GGCACAGCTTGTAGCCAGAGGGAGGAAGAGAGAGGA,354
10,TGCCACATCCTGCCCCTCCCCAGGTCTAAGCACCAA,12400
11,TTGGGGTTTATACCCCATCTACTTTCAGGAAGGGTT,349
12,ATAAAGGATGTACAGTATTTAGAGAACAGTGGATAA,909
13,AAAGACAGGATGTGGGGGAGTGAGCTACAAGGGCCC,6650 ± 640
14,ATTTAGGAGGAAGTTTCCAGTACGACAACCTCACAG,641
15,ATCCCCAAGCAGGCGGAACTCACCACGGCCAGGGTG,327
16,GCATGCGCCAGAGACCATGCACCGGATTGGGCGCCT,281
17,GGCCTCCTTCGGAAGCTCCCCTCCACCCTCAAGCAG,304
18,AGGAGCCGGAAGTCCCGCCCACGCACCCCCCGTAGG,8920
19,CCCTCAGCGGAAGTGGAAGCTGTAGTTTCCAAAGGC,7590
20,CCGCCGGGCTTCGGCGCTGGAACCGGACCAATCCGG,305
21,GCCACGGTGCCTGCCGGGACAGCGAGTTCCGCCGGG,419
22,GGCGGGGCATCCGGCAGCACCGCCTGCAGGCGCCCG,4900
23,TCGGTCTACGGCTGCGCACAGCGCGAGGAAGCGCGG,473
24,CCTGGCCGCCTATCAAATCTTGCCACTTCCTGCTCG,1430
25,GCCTTCCGCCGTCTGCTAGGCGTGTCGCCGTAGGAG,3670
